Measurements reported in the supplement of paper PMC3334620.
In all, about 33,000 sequences were measured (“E-score (-0.5 to 0.5)”: median about -0.054, highest 2% from about 0.35 on). Some of the results follow.

biological target: T1, Stb5 (UniProt P38699); test: PBM E-score (8-mer binding enrichment) (E-score (-0.5 to 0.5)); higher = stronger / more preferred TF binding; most listed sequences are background and not binding sites; details: protein concentration: 200 nM; construct: GST-full length
T1 sequence: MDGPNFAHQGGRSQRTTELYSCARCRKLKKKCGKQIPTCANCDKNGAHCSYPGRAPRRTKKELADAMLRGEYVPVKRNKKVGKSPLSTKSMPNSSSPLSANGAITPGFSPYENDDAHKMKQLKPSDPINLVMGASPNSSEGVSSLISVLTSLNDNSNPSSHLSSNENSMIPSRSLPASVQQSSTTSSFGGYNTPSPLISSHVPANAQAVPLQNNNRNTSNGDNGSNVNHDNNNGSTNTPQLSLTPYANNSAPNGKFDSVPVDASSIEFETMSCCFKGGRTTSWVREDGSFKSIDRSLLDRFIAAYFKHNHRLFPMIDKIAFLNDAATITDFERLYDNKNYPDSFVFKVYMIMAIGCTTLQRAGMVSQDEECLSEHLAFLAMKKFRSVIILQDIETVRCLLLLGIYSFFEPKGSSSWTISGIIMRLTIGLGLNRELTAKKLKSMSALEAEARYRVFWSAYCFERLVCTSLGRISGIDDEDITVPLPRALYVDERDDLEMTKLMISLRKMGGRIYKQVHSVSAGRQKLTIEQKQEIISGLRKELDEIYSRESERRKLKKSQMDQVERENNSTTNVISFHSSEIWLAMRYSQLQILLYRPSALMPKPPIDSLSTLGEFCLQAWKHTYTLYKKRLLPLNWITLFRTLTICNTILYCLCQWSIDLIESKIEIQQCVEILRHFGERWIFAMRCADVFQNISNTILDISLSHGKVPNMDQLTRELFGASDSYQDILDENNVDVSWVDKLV
Summary of the method: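 E-scores (a modified Wilcoxon-Mann-Whitney statistic) were assigned by the Universal PBM Analysis Suite to every ungapped eight-base word pooled with its reverse complement. The input came from universal all-10-mer Agilent arrays made double-stranded by primer extension and probed with GST-tagged yeast transcription factors at about 100-200 nM. Fluorescent anti-GST detected bound protein, and masliner normalised the scans.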

Sequence	PBM E-score
AGGGTTTA	-0.028
ATTGAGGG	-0.117
ATAAGTAT	-0.124
AGACTCAC	-0.243
CCGCTCCC	0.247
ATATCTAG	-0.106
CTTCGTTA	-0.0578
CAGGTTAG	0.0211
AAGACGGG	0.155
GACCGTAA	0.186
AGACGGAC	0.331
CAGCTCTC	-0.249
GCATTACC	0.0712
CAGCAGTA	-0.238
AAATCTTG	-0.0662
TAGGACTA	-0.0597
ATCCCCCA	-0.265
GAACGCCC	-0.0162
ACTGGAAG	-0.182
GCCTAAGC	0.053
AATTACGT	-0.15
ATGTGATA	-0.21
ACGAGCGC	0.103
AATTTGGC	-0.092
CTCGCTTC	0.0542

Sequence	PBM E-score
ACGGTAGC	0.00794
ACATATGG	-0.0647
GGCGCAGA	-0.0492
CTACAACC	-0.0393
AACGTCGA	-0.175
CAAACGTG	-0.236
CACAATAG	-0.0261
TAGCATAA	-0.0636
GGCCGGAA	0.193
CGGCGCCC	0.125
AGCGGATA	0.286
ATCGGGGA	0.307
CGGCTCTC	-0.0773
GAGCTCAA	0.0147
ACGTTCCT	-0.244
CTAACAAG	-0.159
ACCAAGAG	-0.245
GGAATACA	0.179
AGAGGCGC	-0.0702
ACGACCAC	-0.177
GGCTAGAA	0.026
ACGCCCCT	-0.156
AGAGTGAA	-0.172
GCAACAAA	-0.0939
CGAAGCTA	-0.0903

Sequence	PBM E-score
CGCCTCTA	-0.0163
CCGACAGA	0.345
CCCCACAA	-0.129
ATGCTTGC	-0.272
ACATTACG	-0.0931
AGGATCCT	-0.175
CTGTACAG	-0.16
CTTTGGGA	-0.0262
AACTTATC	-0.0603
ATCACCCC	0.296
AGCCCAGA	-0.178
CTAAAAAC	-0.102
CCTAGCCG	0.201
GCGCGTCC	-0.048
TCGTGTCA	-0.132
ACTGATTA	-0.201
CCCTGCGC	-0.00976
ACGTTAAA	-0.0243
AAACTATG	-0.186
CCACGTAG	-0.206
CGTTAAAG	-0.0182
CGTGCTTC	-0.0683
GCGCTTCA	-0.031
AAGACCAA	-0.0734
AAGGGGCG	0.0495

Sequence	PBM E-score
GAGACTGC	-0.155
CATTTCTC	-0.0296
GCACTGCC	-0.00913
TGAGAAAA	-0.212
AACCCCCA	-0.0755
CAGCGGCC	0.244
AAACCGAT	0.121
GCGGCTCA	0.0543
CGTTATAG	0.0772
ATGTGGTG	-0.0674
ACAACAGA	-0.257
CGCACCTA	0.207
TACCCGAA	0.0648
ACATATCG	-0.043
CGTACTTC	0.083
ATAGGCAG	-0.225
GAGGTTCA	-0.0881
AGGTGGGA	-0.176
AATAAACA	0.0948
ACCGCTGA	0.255
GGCATATA	0.285
GTTCCAAA	-0.0887
CTAGGGTA	-0.137
ACCTCGAC	-0.207
AATCGGTG	0.405

Sequence	PBM E-score
AATAGCAG	-0.0777
AGGACACC	0.01
ATTCTATC	-0.172
GATCATGC	-0.195
ATCTTTGA	-0.157
GCCGACAA	0.275
AAGCCCGT	0.417
GTCTTGAA	-0.118
AAGACTAG	-0.389
CTTCAGCA	-0.248
TAAAAACA	-0.0391
ACCCGATG	0.212
GCACAGCC	-0.0626
CCAAACGC	-0.103
TGGGTAAA	-0.0212
CGGCGACA	0.316
ACGTTGTG	-0.136
AATGGGAG	-0.172
GACTCCGA	0.304
GAGAAATC	0.0252
ACGTCTCC	-0.172
CTGATTCC	-0.141
GAGGGCGA	-0.0578
CAGAGGTC	0.0405
CACGCCAC	-0.251

Sequence	PBM E-score
AAGCACGA	-0.143
AAAACAAA	0.0144
CGTCACGC	0.0357
CCCGATCC	0.243
AATAGTTG	-0.103
GCATTTAC	-0.185
ACACCAAA	-0.077
GCTGGAAC	-0.0574
GCACGTGC	0.164
CGGATTCC	0.17
AGGTAACC	-0.0413
CGAGGAGA	-0.107
ACAGCGCG	0.251
ATCTGTGC	-0.247
AGGAAGTC	-0.209
AAGGCAAG	-0.14
GCCCGACC	0.306
CGCGCCTC	0.0389
AGTAATGA	-0.141
AGTAGATA	-0.0713
AAGTCAGT	-0.0794
AGTTGCCC	-0.184
GGGAAAAA	0.221
AGCCCACC	0.104
ACATTGAT	-0.162

Sequence	PBM E-score
TAGTCAAA	-0.148
CATTGAGC	-0.032
ACGGTCCT	0.276
CGAAGAGC	0.16
CGATCTTA	0.241
TTACGGAA	0.022
CCGCGTAA	0.222
ATGCGCTA	-0.0438
CTTAAGAC	0.22
AACCGTGT	-0.115
AGTGCCGG	0.407
AAACCCAT	-0.0199
GTTTGCCA	-0.0333
ACGAGACG	0.047
ATGATGGG	-0.133
GCGTCAAC	0.165
AGCTTGAT	-0.206
CACTAAGC	-0.127
ATAGCAAG	-0.0438
CACGCAAG	-0.164
ACTGCACC	-0.0781
GTTAGTCA	0.0698
